Assay results from the supplement of paper PMC3334620.
In all, about 33,000 sequences were measured (“E-score (-0.5 to 0.5)”: median about -0.056, highest 2% from about 0.38 on). Some of the results follow.

Target: Stb4 (UniProt P50104)
Test: PBM E-score (8-mer binding enrichment) (E-score (-0.5 to 0.5)); higher = stronger / more preferred TF binding; most listed sequences are background and not binding sites
Settings: protein concentration: 200 nM; construct: GST-DNA-binding domain
Method: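 Universal 'all 10-mer' protein binding microarrays (Agilent AMADID 015681) probed with GST-tagged S. cerevisiae TFs (full-length or DBD) made by in vitro transcription/translation (PURExpress), about 100-200 nM. Bound TF was detected with fluorescent anti-GST. Each ungapped 8-mer (which stands for itself and its reverse complement) is scored by the PBM enrichment score (E-score), a modified Wilcoxon-Mann-Whitney statistic from -0.5 to +0.5, computed with the Universal PBM Analysis Suite. Scale: above 0.35 generally sequence-specific binding.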

Sequence	PBM E-score
AGTATAGC	-0.0774
GATAATCC	0.19
AGCGTTCG	-0.00865
ATAGGGCG	-0.0285
ATAAGCCA	-0.169
CGCCCACA	0.0446
ACAGGTGG	-0.226
CTGCTCGA	-0.187
AAACTCGA	-0.0699
CAGAAGAC	-0.172
CGCGTGCC	0.122
AGGTCCAG	-0.216
ACCATATG	-0.311
TAGCCCCA	-0.101
ACACATGG	-0.187
CCCCCTCC	-0.107
CTAAGGAA	-0.0293
GTGAGGCA	-0.0459
AAGTCCCT	-0.294
GGAGAAGA	-0.0192
TCCCCTCA	-0.106
CTTTGCTA	-0.167
GCGTTTAC	-0.0125
CGCCGTAA	0.123
ACCATGTA	-0.148

Sequence	PBM E-score
ATCACCGG	0.137
ATTCCGTA	0.265
ATTTGGTG	-0.194
CCGCATAG	0.0776
GCTTAAAC	-0.188
CTCGCCAA	-0.0864
AGGAGCAG	-0.137
CATTACTC	-0.00902
AAACCATT	-0.0827
GTAATGAA	-0.177
ATGTGCCC	-0.048
GAGAACGC	-0.115
CCTGAGTC	0.133
ATATGACC	-0.13
CTTCATGA	-0.0961
ACGCACCC	-0.00669
ATCAGAAT	-0.0528
CTCTGTAC	-0.241
CTACGTTC	-0.0027
AGCCCGCC	0.0602
GAACGCTC	-0.261
AGCAATCA	-0.213
GAAATACC	0.133
GAAGCCCC	0.18
AGGAGAGG	-0.405

Sequence	PBM E-score
AGGCAGGG	-0.246
ATAGGAAT	-0.164
CAGCGAGC	0.00924
CAGCATGG	-0.0225
CGAACGCG	0.234
TCCCTCGA	-0.198
CGTTTCGC	0.0985
GCAACTAA	0.0277
GTCGTCTA	-0.0927
AGGCCTCA	-0.274
CAAGAAGC	-0.155
AGTAAACA	-0.0848
CCTTCATA	-0.144
GCCCCGCC	0.277
ACTAACGA	-0.242
CGTCGTGA	-0.0507
AGGGGACT	-0.0531
GAGTTAGC	-0.0388
ACCTTTGG	-0.144
GTGCGCAA	-0.1
ATTTTTGG	-0.112
CACACCCA	0.00395
ACACTAAC	-0.0185
ACTAGTGC	-0.127
CGATAGAC	-0.064

Sequence	PBM E-score
GTCTCCAA	-0.156
GTACTAAA	-0.137
CCTCCTAC	-0.0946
CCGACGTA	0.31
CACCCGGA	0.358
CCCCGGAC	0.183
CAACGGAG	0.103
CTTACAGC	-0.134
CCACTCAG	-0.212
CTTACTAC	-0.0203
ATCGCCCC	-0.128
CAGGACTG	-0.28
GGAGGGAC	0.0519
AACCCGCC	0.199
GTGATGTA	-0.0453
GGGAGACC	0.0202
GTACAGAA	0.0798
CTCACGCC	0.0107
CACACTGA	-0.338
GTCGCCCA	-0.173
ATATAGGG	-0.161
TGCCTTAA	-0.244
CTACTACC	0.0495
ACACGTAA	-0.0577
GGTTAAAA	0.177

Sequence	PBM E-score
TTCTCCAA	-0.139
GCAAGGCC	-0.0186
CGCTAACG	0.0009
CCTAAACA	-0.149
ATATCCAA	0.0444
AATTGTTC	0.136
TAGTCTAA	-0.0612
CCGAGCGC	0.44
CGTGGGTA	0.104
CTTGTCAC	-0.233
AGATGTGG	-0.0748
AGCATGAC	-0.302
CTGAGTCC	-0.0794
GCAAGTAC	-0.192
AATCGATC	0.0225
GAAAGGGC	-0.0973
AAGACAAG	0.0278
GGAGGGGA	0.196
GCCAACAA	-0.163
CCAGCAAG	-0.175
TGCGGTAA	0.0561
CCTATGCC	-0.174
CACGGCCA	-0.148
GAGGTAGC	-0.0938
CGGTCACA	-0.0886

Sequence	PBM E-score
ACAAAACG	0.037
AATAGTGT	0.213
ACCGGTCC	0.19
GACTAACA	-0.048
CCTCTGTA	-0.251
AGCAGACC	-0.0722
AAGTCGTG	-0.143
TACCCCCA	-0.354
CGTGCTGA	-0.153
AGCCTTAC	-0.284
GCCGGGAA	0.322
AAACGACG	-0.0616
AACCTAGG	-0.012
CCGAGGGC	0.431
GATCCTGA	0.121
CAGCATCC	0.121
CCGACGAG	0.284
CGGGGCAG	0.134
CTTGAATC	-0.11
CTGGAGGA	-0.336
GAGAACTA	-0.0973
CACCCAAG	-0.00684
TCATAGCA	-0.245
CAAGATCC	0.146
GAATAAAC	-0.0448

Sequence	PBM E-score
ATGCCAAT	-0.158
AGCGTCCC	0.0771
ATCACCTC	-0.141
GTAGGGGA	-0.0129
ACGCGACT	-0.164
GCGTGGTA	0.0418
ACGAGGAA	-0.0251
ACTCCTGC	0.067
AAGCAGAG	-0.226
ACGCGACA	-0.115
GCACTTTA	0.00064
ATCTCGGG	0.449
GCAGACCA	0.0506
CATCTTAG	-0.095
GTTTACCA	-0.0652
ATCGATAG	-0.265
GCATCCAA	-0.207
CGACTACC	0.148
ATGCGACC	0.0749
CTTGTTAC	-0.206
ATGGTTAA	-0.164
AAGGCCTT	-0.207
CCGTCGCA	0.116
CAATACGG	0.083
AGCAAGTG	-0.343

Sequence	PBM E-score
CATTCGGG	0.343
ATTGGAGG	-0.268
GCGCGTCA	-0.206
CCGTCTCA	0.0165
ACTAGCTC	-0.0635
CATGAAGG	-0.0968
AATTTATA	-0.0486
CAGTGCGA	-0.231
CCGAAGCC	0.371
AGCTGATG	-0.135
CCGGACTC	0.266
AATCCCCT	-0.155
AATTAGTC	0.105
GCCCAACA	-0.183
CAGTACAG	-0.0544
CAGGCTTC	0.0742
AGGGTACG	-0.0957
ATCCTAGA	-0.00757
ACAGTAGA	-0.113
CAGTAGGG	-0.198
ACGTCCCC	-0.0302
AGTGTGAC	-0.327
ATAGTCGG	0.203
GGCGCGGA	0.232
CGGCTCAC	0.231

Sequence	PBM E-score
AATGGAAA	0.0387
CCGGGGAA	0.24
CGCGAGCC	0.143
GCAGAGAA	-0.17
GCCGGTCC	0.233
GATTATAA	0.205
ACTGGTCA	-0.0552
ATTGAGAG	-0.15
AGCGGTAC	-0.00183
AAAGGATA	-0.0207
AAGGGCAT	-0.294
GTCTCAAC	-0.00508
AGTCCGAT	0.236
AATCACAA	-0.0604
ACTTGCTG	-0.29
ACGGCCTC	-0.12
CTCATTAC	-0.0922
TCCGCCAA	0.233
GTTTACAA	0.078
